± gives the standard deviation of the averaged measurements. Some of the results follow.

The assay deals with PfAP2-G AP2 domain (GST-tagged). Kind of assay: gcPBM binding intensity (ln(normalized median fluorescence intensity)); higher = stronger DNA binding. In outline:
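After 1 h on an Agilent 4 × 180k array of primer-extended double-stranded 36-bp intergenic genomic probes and negative controls, bound GST-tagged P. falciparum DNA-binding domains were detected with Alexa488 anti-GST antibody and scanned at 488 nm. The domains had been expressed in E. coli, and binding took place in 1× PBS with 1% milk, 0.2 mg/ml BSA, 0.5% salmon testes DNA and 0.03% Triton X-100. Binding intensity is the highest Masliner-normalised natural-log median intensity across replicate spots of either probe orientation.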
As to “GTAAGTTGTGCATTCACACACATATAAATATAAATA [CACACA_site7536]”, the “gcPBM binding intensity (ln)” value was 10.2 ± 0.16.

On to “CATTATGTTGTAAATGCACACATACAAATACATATA [CACACA_site8380]”, for which the “gcPBM binding intensity (ln)” value was determined as 10.2 ± 0.16.

“AATTAAATTACTTATACACACATAAAATGCCTGTAT [CACACA_site6597]”: the “gcPBM binding intensity (ln)” value is 9.82 ± 0.16.

Regarding “TATTTATTCTCCAACACACACACATATATTTATATA [CACACA_site7376]”, the “gcPBM binding intensity (ln)” value was 10.2 ± 0.35.

With “AGTTTGTCAATCAACACACACCTATTTATTATAGAT [CACACA_site7777]”, the “gcPBM binding intensity (ln)” value worked out at 9.915 ± 0.035.

Take “TTGATAATTATATAATGTACTCATTATAATATGATG [XGTACX_site7813]”: the “gcPBM binding intensity (ln)” value came out at 11.3 ± 0.98.

For the sequence “TATAAAAAAAAAAAAAGTACTAACTTAAAACAATTT [XGTACX_site7969]”, the “gcPBM binding intensity (ln)” value is 11.1 ± 0.76.

As to “TTTATTCTCAAACACACACACATATATATATATATA [CACACA_site2895]”, the “gcPBM binding intensity (ln)” value turned out to be 9.99 ± 0.22.

As for “TAATTAATAATAATATGTACATATTAATATATTATT [XGTACX_site6900]”, the “gcPBM binding intensity (ln)” value is 11.1 ± 0.71.

For “TTTTATATATATATCACACACACACCCATGTTTTAA [CACACA_site79]”, the “gcPBM binding intensity (ln)” value came to 10.2 ± 0.23.

For “TGATAAAGTAAATATACATGCGATTAGTTATATATA [TGCATGCA_site720]”, the “gcPBM binding intensity (ln)” value was 9.38 ± 0.57.

In the case of “TTTTTTTTACATTCTGCACACAATTTATTTTTTTTT [CACACA_site36]”, the “gcPBM binding intensity (ln)” value amounted to 10.11 ± 0.078.

Consider “AAAAATGAGTGACACACACACATATAAATATAAATA [CACACA_site7115]”, for which the “gcPBM binding intensity (ln)” value was 10.1 ± 0.25.

For “AAATCAAACTTTGGTGTGCACAAATATATACATATA [GTGCAC_site9986]”, the “gcPBM binding intensity (ln)” value came to 10.7 ± 0.34.

Consider “GTAATTTTAAAGAAAAGTACACATTTATTAATTATT [XGTACX_site4468]”, for which the “gcPBM binding intensity (ln)” value came out at 11.5 ± 1.2.

Take ACATATAAATATTGTGTGCACACACATAATATATAT: the “gcPBM binding intensity (ln)” value was 10.6 ± 0.34.

Turning to “TATGTATTTAAGTTACCTGAACGTTCAGGTAAAATT [CACACA_negctrl_site1393]”, the “gcPBM binding intensity (ln)” value turned out to be 10.2 ± 0.23.

For “GTGTTAAATGTTTACACACAAACTTGCAATAATTAT [CACACA_site3825]”, the “gcPBM binding intensity (ln)” value is 10.14 ± 0.057.

As for “AAAAATTATAACTAAAAAAATCACACAAAATATTTT [TGCATGCA_negctrl_site28]”, the “gcPBM binding intensity (ln)” value is 9.865 ± 0.049.

As to “TTGCATTTATTATACACACACAAAAAAATATATATA [CACACA_site238]”, the “gcPBM binding intensity (ln)” value was 10.2 ± 0.3.

Consider “ATATTAATATATGTGGCACACATGTGGAGTCCTATT [CACACA_site213]”, for which the “gcPBM binding intensity (ln)” value was 10.7 ± 0.43.

On to “TATCATTTCTAAAAAGGTACACATACATCATATATT [XGTACX_site3386]”, for which the “gcPBM binding intensity (ln)” value came out at 11.3 ± 0.87.

As for “GCGAGATGCTAAAATGCATGTTGGGCATTAGTTAAA [TGCATGCA_site586]”, the “gcPBM binding intensity (ln)” value was determined as 9.99 ± 0.014.

In the case of “TATAATAATTCTTTGAGTACTTAAACATGTGAAATT [XGTACX_site955]”, the “gcPBM binding intensity (ln)” value amounted to 11.3 ± 0.73.

Take “TATATATGTAAATGCACACATATGTGGATATACTTA [CACACA_site1699]”: the “gcPBM binding intensity (ln)” value amounted to 10.03 ± 0.085.

Consider “GTGTAGTAAAATCGATGTACGTACAAATCAATTATT [XGTACX_site7662]”, for which the “gcPBM binding intensity (ln)” value was determined as 11.8 ± 0.83.

“AAAAAAATGAAGAAATGTACAAATTTCATTAATTTT [XGTACX_site354]”: the “gcPBM binding intensity (ln)” value is 10.5 ± 0.12.

Regarding “CATTTTTACCGGTACTGTACATAAAAAAAAAAAAAG [XGTACX_site1548]”, the “gcPBM binding intensity (ln)” value amounted to 11.6 ± 1.

Turning to “TTATATGTTTTACAACGTACACAAAAAAAACTTATA [XGTACX_site4413]”, the “gcPBM binding intensity (ln)” value was 11.4 ± 0.96.

Regarding “TGTATAACCTGTGTTACACACATTATGATTTATATA [CACACA_site525]”, the “gcPBM binding intensity (ln)” value was 9.79 ± 0.2.

Regarding “GCAGGCTAAAAAATTACACACGAAAAAAATGAATTT [CACACA_site3417]”, the “gcPBM binding intensity (ln)” value amounted to 9.86.

As for “CATATATGGTTATATACATGCACCATTATATTATTA [TGCATGCA_site520]”, the “gcPBM binding intensity (ln)” value stood at 10.4 ± 0.19.

“TATATAATATTTTTCACACACCATTTCCTTAAACAC [CACACA_site4862]”: the “gcPBM binding intensity (ln)” value stood at 10.3 ± 0.32.

For “TAAAAAAAAAGAAGGGGTACATGGATAATATATAAA [XGTACX_site8386]”, the “gcPBM binding intensity (ln)” value is 11.5 ± 1.

“AATATATATAAAAAGGGAAAAATATATAAATAGATA [XGTACX_negctrl_site52]”: the “gcPBM binding intensity (ln)” value was determined as 9.46 ± 0.34.

On to “AAAGATAAAAAAAGTACACACACACCGATATATATA [CACACA_site9006]”, for which the “gcPBM binding intensity (ln)” value was determined as 11.6 ± 1.

For “CACGAACACAAACACAAACACACATCATATATATAT [CACACA_site1322]”, the “gcPBM binding intensity (ln)” value worked out at 10.1 ± 0.55.

For ACTTTAACCTGAACGGTGCATAAAATTTTGGCATTA, the “gcPBM binding intensity (ln)” value amounted to 10.2 ± 0.23.

On to “AAAAAATTGACTAATGCACACAATTACAGATATATA [CACACA_site5010]”, for which the “gcPBM binding intensity (ln)” value was found to be 10.1 ± 0.13.

On to “TCACAATTTTTTAGTACACACATATAAATATATAAA [CACACA_site1537]”, for which the “gcPBM binding intensity (ln)” value was determined as 11.6 ± 1.2.

Regarding “TTTGTATCCTTTTTGACATGCAACCATTCGGGTACA [TGCATGCA_site506]”, the “gcPBM binding intensity (ln)” value was determined as 11.3 ± 0.8.

On to “AAAAAAAAAAAAAACGCACACATTTTTACAATTCTA [CACACA_site3271]”, for which the “gcPBM binding intensity (ln)” value is 10 ± 0.18.

Turning to “TCGTGCATAAATCATACACACACACCGATATATATA [CACACA_site8767]”, the “gcPBM binding intensity (ln)” value was 10.1 ± 0.25.

Take “GTATACAAACATATAAATATAAATGTATTATTTGTT [CACACA_negctrl_site756]”: the “gcPBM binding intensity (ln)” value came out at 9.58 ± 0.2.

In the case of “TTTCATTAATCTAATAGTACAGAAAATTGAGAAAAA [XGTACX_site8395]”, the “gcPBM binding intensity (ln)” value turned out to be 11.1 ± 0.62.

Regarding “TCTATTAATTAATATACACACATTATGTATATATAT [CACACA_site2541]”, the “gcPBM binding intensity (ln)” value worked out at 9.92 ± 0.042.

In the case of “GTTTTGGCTAACTATTCACACATTAAAATATTACCA [CACACA_site5016]”, the “gcPBM binding intensity (ln)” value worked out at 10.3 ± 0.21.

As to “CACCATGATACATACACACAGACATATACGCATTCA [CACACA_site1008]”, the “gcPBM binding intensity (ln)” value is 10.3 ± 0.16.

On to “ACAATCCACAGGGGCGCACACATATAAGCAGTATAT [CACACA_site3817]”, for which the “gcPBM binding intensity (ln)” value was 10.6 ± 0.46.

With “TAAACATAATATTTAACACACATGAAGATGTATATT [CACACA_site1036]”, the “gcPBM binding intensity (ln)” value was found to be 9.66 ± 0.14.

On to “ATAAATATTTACAAAAGTACACATAACTTTAGATAT [XGTACX_site1685]”, for which the “gcPBM binding intensity (ln)” value was 11.4 ± 0.9.

For “ATTTCACAGAGACACACACACAATATATTTCCTTTT [CACACA_site7773]”, the “gcPBM binding intensity (ln)” value stood at 10.09 ± 0.042.

As to “AAAAAATTAATAAAAACACACAAAAAAAATAAACAA [CACACA_site1907]”, the “gcPBM binding intensity (ln)” value was 10 ± 0.13.

“TTTGTTGTTTGGAGATGTACATATTTTACACTTTTT [XGTACX_site5965]”: the “gcPBM binding intensity (ln)” value was found to be 11.4 ± 0.93.

Turning to “ATAAAATATATGAAGACACACATAACATCATATTTT [CACACA_site3144]”, the “gcPBM binding intensity (ln)” value was found to be 9.895 ± 0.078.

For “CATAATATGACATACACACACAAAAAAAAAAAAATA [CACACA_site1285]”, the “gcPBM binding intensity (ln)” value worked out at 10.1 ± 0.28.

For “AACCGGGCCTAAGATGTAATGCCTTAGCCTATAAAA [CACACA_negctrl_site479]”, the “gcPBM binding intensity (ln)” value was 9.59 ± 0.24.
